Source: the supplement of paper PMC3334620
The full ranking holds about 33,000 sequences; the median of “E-score (-0.5 to 0.5)” is about -0.01, and the highest 2% start at about 0.26. Some of the results follow.

Each sequence was assayed against Ste12 (UniProt P13574) (assay: PBM E-score (8-mer binding enrichment) (E-score (-0.5 to 0.5)); higher = stronger / more preferred TF binding; most listed sequences are background and not binding sites). Settings: protein concentration: 200 nM; construct: GST-DNA-binding domain.
Experimental: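 Universal 'all 10-mer' protein binding microarrays (Agilent AMADID 015681) probed with GST-tagged S. cerevisiae TFs (full-length or DBD) made by in vitro transcription/translation (PURExpress), about 100-200 nM. Bound TF was detected with fluorescent anti-GST. Each ungapped 8-mer (which stands for itself and its reverse complement) is scored by the PBM enrichment score (E-score), a modified Wilcoxon-Mann-Whitney statistic from -0.5 to +0.5, computed with the Universal PBM Analysis Suite. Scale: above 0.35 generally sequence-specific binding.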

Sequence | PBM E-score
CGAAACAA | 0.349
ACCATATA | -0.034
GGGGTGCA | 0.0263
CGACTGCG | -0.0514
CGGATAAG | 0.0102
CGTGGCCC | -0.228
AATCTCGA | 0.011
TATCGGCA | -0.076
CCCCAATC | -0.0733
TTCAGCAA | 0.125
ACAACCGC | 0.0745
ACTCGGAA | 0.0844
GCAACAGC | -0.00451
CGGGAGTA | 0.0457
AATTTGAT | 0.0452
CGTCGCTC | -0.115
GGGCCCAC | -0.122
ACCGCTCA | -0.0178
ATTTCGAC | -0.0166
AAGCACGC | 0.12
GAAAGTTA | 0.159
CATGAGCG | -0.0776
GCCCTAGA | -0.18
GACCTATC | -0.0664
AATAAACT | 0.255

Sequence | PBM E-score
ACGTTGTC | -0.195
CGAGACAG | 0.0228
ATGAGTAG | -0.0227
TGCCCACA | -0.155
GCCCCGTA | -0.19
GGCCACTA | -0.218
CAACCCAA | -0.137
ACCAGGCT | -0.0491
GGTTGGAA | 0.222
TCCTACAA | 0.126
AGTCGCAG | -0.0962
CGTACAAC | -0.0913
ATGCACGC | -0.063
ATGCGGGC | 0.0501
CGGTGTTA | 0.0775
ACATCAGT | 0.0301
CAAGAAAC | 0.165
GTCCTGCA | -0.223
ACATTTCG | 0.034
ATGGTCCG | 0.0323
CCCCCCGA | -0.148
ACGTCAAT | -0.271
AAAATTTC | 0.0683
ATGCAGCA | -0.175
CAACGGTG | -0.0931

Sequence | PBM E-score
CACCGCGA | -0.0822
AAAACGCT | 0.0239
AGGAATTC | 0.0142
CAACTATA | 0.0452
ACCGTCCA | -0.0201
ACGGGGTG | 0.0476
TGAATTAA | 0.214
CCTTCACC | -0.0114
AGATTGGG | 0.0168
ACAAGCTA | -0.0518
CGACGGCC | -0.187
ACGAGCCG | 0.0111
CGATTTAC | 0.148
AATGTTTA | 0.174
ATTACCCA | 0.0293
TCTTATCA | 0.102
ACTAGGTC | -0.114
GATCGCCC | -0.0498
ATTCCATA | 0.0806
CCACCATC | -0.114
AAACTCAG | 0.0876
CGCCCGAA | 0.0436
GATGAAAA | 0.281
CTTCAACA | 0.0157
AAATGCTC | 0.127

Sequence | PBM E-score
CTTCTTAA | 0.0493
AGCAATTC | -0.0997
AGGGCGCG | -0.00647
CCTCAGTC | -0.199
AAAACACA | 0.198
AAAAAAAG | 0.294
TGGGCTAA | -0.0581
AACGGTCG | 0.0414
CCTCGGCG | 0.252
AGGAGCCC | -0.204
AAGTCGAC | 0.119
CTCTGATA | 0.028
CGCGCAGC | -0.115
CCTATTCG | -0.118
TAGCCCTA | -0.213
ACTCGGTA | -0.218
AAGATCAG | -0.0897
CTTTTCTC | 0.0641
ACTCTAGC | -0.282
CTGTGTCC | -0.0694
AACACGCT | 0.152
AATCATAC | 0.161
ACCGTCTA | -0.117
GAGCACGC | -0.137
AAAGTCGA | 0.0614

Sequence | PBM E-score
ATCCCCAA | 0.0874
CGACTATC | -0.197
ATAGAAAT | 0.207
GGCTCTCA | -0.339
CATACTTA | 0.0951
AGTGATTA | 0.1
AATCTGAC | 0.0332
CCCTCCGA | -0.0679
TAATGAGA | 0.168
CCTGGTCC | -0.205
CAAGTCTA | -0.00872
TAGGGCGA | -0.0892
GACGAGTA | 0.0549
AGAGTTAT | 0.0561
GACACAGC | -0.139
CCCCCGCC | -0.0801
CCAAGTAA | 0.161
GTGCCCAC | -0.173
CTTTTAGA | 0.0638
AACACCCC | 0.0348
CTTACGGC | -0.127
AAACCGGA | 0.22
CCGTCCTC | -0.157
AACCTTTA | -0.0276
GCTTTGCA | -0.264

Sequence | PBM E-score
CTGGCGCA | -0.0943
GGAACTAC | -0.105
CGGGAAGC | -0.0794
GAAAAACA | 0.21
CCCTGGCA | -0.13
TAGGAGGA | -0.0646
ACCTCAAA | 0.182
CACCCGCC | 0.258
ATAGTATG | -0.00467
ATAACCTC | -0.171
CAGTGTAG | 0.081
ACTTACGA | -0.0319
AGGGTGGA | -0.218
CAGCATGA | -0.0518
AAATATCT | 0.102
ACCGGGTA | 0.107
AAGACACA | -0.0313
GTCCCGAA | -0.125
CGTCCAAC | 0.11
CTAGGCTC | -0.319
ACCGCGTG | -0.261
GCTCACAA | -0.185
ATATATAT | 0.244
ATATCAAC | 0.141
AGAACGAG | -0.142

Sequence | PBM E-score
TCCAGGCA | 0.102
CGATGTCA | -0.119
AACGCTAG | -0.132
CCATCATC | 0.014
ACGTCTCT | 0.00481
AAAGATTC | 0.177
AAGGTGAC | -0.172
GTCGCAAC | 0.194
CTAACATA | 0.0668
GGATAATA | 0.195
GTGCCTCA | -0.00805
GGTGGAAA | -0.076
CACAAAGA | 0.111
GGCTTCGA | -0.0257
ACGTAGAT | 0.103
GATTCCAC | 0.133
AGGACCAC | -0.267
GTCCTTTA | -0.00228
GGCGGGAC | 0.132
ACCTCGTC | 0.0514
CGCGCCAG | 0.0273
GGTAAAAA | 0.191
GCTAAAGA | 0.129
TCTGATAA | 0.0748
TATCCAAA | 0.0767

Sequence | PBM E-score
AAGGACAC | -0.0784
ACTGTCGC | -0.0231
CAATACTC | 0.0738
ATGAGCTC | 0.0901
CGATGGGC | -0.0527
CTCTGTTC | 0.0445
CTAGAAAA | 0.122
CACGCGGC | -0.101
AGTCGTAA | 0.16
GCCACGGC | -0.00283
GGGAGCAA | -0.169
GCTCCAGC | -0.00287
CCCAAGCA | 0.0648
CATACAGC | -0.114
GAAGCTCC | -0.14
CTCCATAC | 0.171
ACACTAGG | 0.0304
GACGCTTA | -0.0976
GCGCGTGA | 0.0934
AAAACCAC | 0.201
GGGTACAC | -0.192
CCTCTCTA | -0.314
CTCTTGTA | 0.0528
GGCACGGA | -0.146
CCCCCGAA | -0.217

Sequence | PBM E-score
AGCTGGCC | -0.0987
GATAGGGC | -0.265
GCGATTTA | 0.0399
AAAGGAAT | 0.108
CATCCTAC | -0.105
AGCCACTG | -0.0733
GAATCTAA | 0.0896
GAGCCTCA | 0.00214
GGTTGCAC | -0.109
TAGTCACA | 0.037
CTAAGGAG | -0.207
CCCGTATC | 0.0711
GCCGGAAA | 0.0458
CCGTTGTC | 0.0456
AAAATTGG | 0.173
GGGCTCGA | 0.0483
ACGGCTAT | -0.135
CACGGCGC | -0.0235
AACACAGA | 0.0627
GAATTAAC | 0.00892
CAGTAGAC | -0.0528
GGTGGTTA | 0.0805
CTGGTTGC | 0.251
TACTCATA | -0.0743
ATCGCCAC | -0.0254

Sequence | PBM E-score
AGGATTAC | 0.037
CTTCCACA | -0.0803
CCTAAAAC | 0.236
ACGAGCTA | -0.313
GAAATCCC | 0.027
GGTCTGGA | -0.115
ATGTTAAG | 0.0812
GAGCACTC | -0.0267
GGACACCA | 0.0136
CTTGATAC | 0.0702
GCCATAAC | -0.164
AAGCGCAC | -0.18
CAGGCGCC | 0.116
CTGAGCCA | -0.00032
TGAAAGCA | 0.145
ACGATCAG | -0.054
GCTCCAAC | 0.0307
GTAACCTA | 0.164
AACATCTC | -0.0931
AAACTTTG | 0.217
GGCGTCAC | 0.0698
GGGCCCTA | -0.0582
AACGAAAC | 0.314
CAAGTAAC | 0.045
CGAGGCTA | -0.0806

Sequence | PBM E-score
CCCATTGA | 0.0714
GCCATCAC | -0.0789
ATGTATGA | 0.138
GCACTCTA | -0.112
CAACTAAA | 0.00909
AACGAGTT | -0.0971
AAGTGTCC | -0.236
AGAATACT | -0.0293
AACTAGTA | 0.0578
CAACCAGA | -0.0395
AGCCTTGG | -0.185
CCCAGAAG | -0.0684
GGCAACTA | -0.139
ACGGGTAT | 0.13
CAACATCG | -0.00967
CGGATCAG | 0.0297
GATAAACA | 0.096
ACATAGGG | -0.137
GCTTTACA | -0.00619
ATCTTTGC | 0.19
ACGTTTAA | 0.0563
CTCGTTAA | -0.0602
AATTCGGA | 0.126
CAACGTTG | 0.0287
GGCGTCCA | -0.155

Sequence | PBM E-score
GCAAACAA | 0.146
AGTCAAAC | -0.121
GCTCCGCA | -0.133
ATGCATTC | 0.0417
AATGACCA | 0.0927
AGTTCGAC | -0.147
CGTGCACA | -0.238
TCGGAAAA | 0.275
GTGCTAAA | 0.00531
ACCACTAC | -0.00992
CATAGCCG | -0.039
CCCTCGAA | -0.111
GCAACTTA | 0.0563
ACGGGATA | 0.125
ATAAGGTC | 0.0906
AGTACTTA | -0.0601
CCAGGGCA | -0.103
CCCAGGAG | -0.169
AGCGAACT | 0.0273
GACATATC | 0.144
CAGAACAA | 0.238
CCTCGAGC | 0.125
AGCCAACG | -0.0264
AGTTAACA | 0.0664
GTAAACAC | 0.122

Sequence | PBM E-score
CACTTTCA | 0.0472
TATGAATA | 0.069
AGTACCTA | -0.215
GCATGACC | -0.111
GACCGTCA | -0.198
AACAGCAT | 0.0947
ATAGGGCA | -0.109
CCATACCG | 0.123
GAAACTGC | 0.215
CGAGTTCC | -0.135
TAATCATA | 0.0727
CCCCATTC | -0.0773
ATGCCACA | 0.128
GGAGGTAC | -0.0965
AAGGCCAC | -0.13
AGGAGCGG | -0.258
CCACCAGC | 0.0215
GACGCCGA | 0.15
GCCGGGAC | -0.131
ACAATACA | 0.0363
AGGGTGCG | -0.0329
CGGGTCCA | -0.238
CCGCGCGG | 0.321
CACAAATA | 0.168
GCGTCGCA | 0.0271

Sequence | PBM E-score
ACCAATAC | 0.099
TTAACAAA | 0.246
CGATACAA | 0.0267
AGAGAGCA | -0.111
ACTTATGC | -0.0582
GAGATATC | 0.0245
CGCCGTAG | -0.146
GGCGAACC | -0.0904
CAAAACTC | 0.123
TCCCGCGA | 0.0701
TGATGACA | 0.0917
GCCCGCTA | -0.161
CGAATTAC | 0.0656
CGACGCAA | -0.0452
TCGCCGCA | -0.122
ATAGCAAC | -0.0859
AAGAGGGA | -0.0411
AGAGACGG | 0.0373
AGGTGTGA | 0.146
